Biological target: T1, GST-MKK3/VF-MYC PPI (Homo sapiens, UniProt P46734)
T1 sequence (P46734 1-347): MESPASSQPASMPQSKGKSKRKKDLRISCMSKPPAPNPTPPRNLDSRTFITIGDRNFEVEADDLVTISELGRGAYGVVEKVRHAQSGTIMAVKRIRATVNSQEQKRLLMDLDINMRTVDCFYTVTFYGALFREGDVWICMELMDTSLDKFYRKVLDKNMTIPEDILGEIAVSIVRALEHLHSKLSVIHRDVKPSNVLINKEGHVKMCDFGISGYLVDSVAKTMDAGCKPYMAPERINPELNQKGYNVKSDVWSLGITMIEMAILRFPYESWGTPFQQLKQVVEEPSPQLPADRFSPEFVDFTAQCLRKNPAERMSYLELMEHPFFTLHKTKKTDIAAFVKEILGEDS
Details: 20µM final concentration; vs DMSO control

## N.N.[Cl][Pt][Cl] [Cisplatin]
  inhibition of MKK3-MYC PPI in uHTS: 55%

Reference: article PMC8456368 (Bioorganic & medicinal chemistry, 2021)
